Assay results taken from the RNAGym collection of RNA variant scans (doi:10.1073/pnas.2313332121).
Variants at the floor of the assay are shown more often than the library holds them.

B1: TPR 5TU (parent)
chain: GGAUCUUCUCGAUCUAACAAAAAAGACAAAUCUGCCACAAAGCUUGAGAGCAUCUUCGGAUGCAGAGGCGGCAGCCUUCGGUGGCGCGAUAGCGCCAACGUUCUCAACUAUGACACGCAAAACGCGUGCUCCGUUGAAUGGAGUUUAUCAUG

Variants of: B1
Assay: polymerase ribozyme fitness, log enrichment relative to wild type (log ratio); higher = more active; in vitro selection for triplet polymerase activity
Summary of the method: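 Libraries of mutants in each subunit of a heterodimeric triplet polymerase ribozyme were generated by PCR and transcribed. In triplicate, each went through one in vitro selection round: annealing with biotinylated primer, partner subunit and triplets; frozen incubation at −7 °C; gel excision of extended constructs; streptavidin-bead capture; RT-PCR. Fitness, taken from Illumina sequencing of input and output libraries, is the logarithm of a genotype's enrichment over wild-type enrichment, averaged across replicates with inverse-variance weights. The logarithm is base 2, and genotypes needed ≥10 input reads and ≥1 read per output to be kept.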
For U7G A49G U61G C76G G88C A106U, the “polymerase ribozyme fitness (log ratio)” value was no more than -4.2. For U6G C10G C14G U56A C87A A91C U104G, the “polymerase ribozyme fitness (log ratio)” value was no more than -4.2. In the case of U6G C54U C87A C99U U111A G152A, the “polymerase ribozyme fitness (log ratio)” value is reported as no more than -4.2. With U7G C14A C36U U55A C69A G81A C95A A150U the “polymerase ribozyme fitness (log ratio)” value was no more than -4.2. For U7A C36A C54U U90A G141C G143C, the “polymerase ribozyme fitness (log ratio)” value was no more than -4.2. With C8G A29U C32A U53A U82G the “polymerase ribozyme fitness (log ratio)” value was no more than -4.2. With U6G A16C A60U U78C A91U C116A G117U the “polymerase ribozyme fitness (log ratio)” value was no more than -4.2. For C8A A19U A23U U56G U61A G86U G88C A98U C125A, the “polymerase ribozyme fitness (log ratio)” value was no more than -4.2. In the case of U7G A12G A17U U56C G74C C85A G100C, the “polymerase ribozyme fitness (log ratio)” value is reported as no more than -4.2. For C8A A26U U44A A49C G74U C85G C108A U111A, the “polymerase ribozyme fitness (log ratio)” value was no more than -4.2. For U7A A19U G70U C75U C103G A122G, the “polymerase ribozyme fitness (log ratio)” value was no more than -4.2. In the case of U7A A20C A24U C54A C75G C76G U78G, the “polymerase ribozyme fitness (log ratio)” value is reported as no more than -4.2. With U6A C18G C57U G88A G92C A113U G152A the “polymerase ribozyme fitness (log ratio)” value was no more than -4.2. With C8A U31C C38U A47U C93G G143C U146C the “polymerase ribozyme fitness (log ratio)” value was no more than -4.2. With U7G U9G C79U G84A C114U the “polymerase ribozyme fitness (log ratio)” value was no more than -4.2. In the case of U6A U33C A49C A91C A138G, the “polymerase ribozyme fitness (log ratio)” value is reported as no more than -4.2. In the case of U7G U15A A41G G71C C87G G143U U144A G152A, the “polymerase ribozyme fitness (log ratio)” value is reported as no more than -4.2. For C8A C103G C108G G124C U144A U145G, the “polymerase ribozyme fitness (log ratio)” value was no more than -4.2. For U6C C27A U31A U56A G83A G86A A121U U145G U148C, the “polymerase ribozyme fitness (log ratio)” value was no more than -4.2. In the case of U7A U44A A49C C93U C123G U130G, the “polymerase ribozyme fitness (log ratio)” value is reported as no more than -4.2. For U6G U56A C95U C96G A110G A119G G152U, the “polymerase ribozyme fitness (log ratio)” value was no more than -4.2. In the case of U6G A17C C38U A52C G58U A150C, the “polymerase ribozyme fitness (log ratio)” value is reported as no more than -4.2. With C8G A28C G50A the “polymerase ribozyme fitness (log ratio)” value was no more than -4.2. In the case of C8G U15C C35A U55A C76U C85U, the “polymerase ribozyme fitness (log ratio)” value is reported as no more than -4.2. With C8G A21U G25C A52C U55A C63A G84A the “polymerase ribozyme fitness (log ratio)” value was no more than -4.2. In the case of U6G A17G A47U A49C C85U G92C, the “polymerase ribozyme fitness (log ratio)” value is reported as no more than -4.2. For U7C A16G A26U U109G, the “polymerase ribozyme fitness (log ratio)” value was no more than -4.2. With U7C U13C A19U G58A A66G C87G G100A the “polymerase ribozyme fitness (log ratio)” value was no more than -4.2. With C8G G11A A21U C51U U82C C95G C105A A121U the “polymerase ribozyme fitness (log ratio)” value was no more than -4.2. In the case of C5U U31C U56A C76G C85A A89U C116A C125U G140U, the “polymerase ribozyme fitness (log ratio)” value is reported as no more than -4.2. With U7G U9G A41C C51U G58A C69U C93U C108U the “polymerase ribozyme fitness (log ratio)” value was no more than -4.2. In the case of U7G G74U C85U U101A C149G, the “polymerase ribozyme fitness (log ratio)” value is reported as no more than -4.2. For C8A C27G G50C G62C C96G, the “polymerase ribozyme fitness (log ratio)” value was no more than -4.2. In the case of C8G A52G C87U, the “polymerase ribozyme fitness (log ratio)” value is reported as no more than -4.2. For C8A A37C U44C G71C G86U G140U, the “polymerase ribozyme fitness (log ratio)” value was no more than -4.2. For C8G C27A G86U G112C C132A, the “polymerase ribozyme fitness (log ratio)” value was no more than -4.2. With C8A A17G A21U C38U G86A C99G the “polymerase ribozyme fitness (log ratio)” value was no more than -4.2. With C8A C18U C57G G84A U101G A115G the “polymerase ribozyme fitness (log ratio)” value was no more than -4.2. For C8G U31A G50C A89C C103G A147C, the “polymerase ribozyme fitness (log ratio)” value was no more than -4.2. In the case of U7A A24C G50U A52U C87G U134G, the “polymerase ribozyme fitness (log ratio)” value is reported as no more than -4.2. With U7G A39U U56G C75G C125U U146C the “polymerase ribozyme fitness (log ratio)” value was no more than -4.2. In the case of U7G A28C A30U U44A U134A, the “polymerase ribozyme fitness (log ratio)” value is reported as no more than -4.2. In the case of C8G A21C C54U G83U, the “polymerase ribozyme fitness (log ratio)” value is reported as no more than -4.2. For U6A U13A U15A G58C C87G A98G, the “polymerase ribozyme fitness (log ratio)” value was no more than -4.2. For C8G A28G C87G C96U U130C, the “polymerase ribozyme fitness (log ratio)” value was no more than -4.2. For U6G G83A A89U C96G C103G A113G, the “polymerase ribozyme fitness (log ratio)” value was no more than -4.2. For U7A U9G C10U A12G A24G G42C C87A C93G C103G G124C, the “polymerase ribozyme fitness (log ratio)” value was no more than -4.2. With U7A A17U U56A G74A C85A G92U G112A the “polymerase ribozyme fitness (log ratio)” value was no more than -4.2. With C5U U9G U15A A39U A40U A107C C118G A120U G136U the “polymerase ribozyme fitness (log ratio)” value was no more than -4.2. In the case of C5U U9A U15G A52C U102G C131A, the “polymerase ribozyme fitness (log ratio)” value is reported as no more than -4.2. In the case of C8A G46A G86A G92A G112C G143U, the “polymerase ribozyme fitness (log ratio)” value is reported as no more than -4.2. For C5U G50C G62U A66U C93U U101C A138G, the “polymerase ribozyme fitness (log ratio)” value was no more than -4.2. For U6A G25U C38A C87A G88A C96U A137C, the “polymerase ribozyme fitness (log ratio)” value was no more than -4.2. With U7G A19U A47C C125A G136U A137C the “polymerase ribozyme fitness (log ratio)” value was no more than -4.2. In the case of U6C A24U G80C A91U C108G, the “polymerase ribozyme fitness (log ratio)” value is reported as no more than -4.2. In the case of U7G C87A U102C G128A, the “polymerase ribozyme fitness (log ratio)” value is reported as no more than -4.2. In the case of U6G A52G C72A C76A C93U A110G, the “polymerase ribozyme fitness (log ratio)” value is reported as no more than -4.2. For C8A C43U A47C C54U G67C G71U U109C C116U A120G, the “polymerase ribozyme fitness (log ratio)” value was no more than -4.2. For U7A C8U G84A C99G C118U G143U, the “polymerase ribozyme fitness (log ratio)” value was no more than -4.2. With U7C A16U A19C G46C U90G C95A U102G U127C U148A the “polymerase ribozyme fitness (log ratio)” value was no more than -4.2. In the case of U6A A12G U15C G65A C72A C85U C96U G100A A115C, the “polymerase ribozyme fitness (log ratio)” value is reported as no more than -4.2. In the case of C8U A16G C79U G143A, the “polymerase ribozyme fitness (log ratio)” value is reported as no more than -4.2. With U6A A19C A23G A24U A73G A107C C132G G133C the “polymerase ribozyme fitness (log ratio)” value was no more than -4.2. In the case of U7G A28G A39U C85U A110U C114A A138U, the “polymerase ribozyme fitness (log ratio)” value is reported as no more than -4.2. In the case of U6G C10G C69G A121C A150C, the “polymerase ribozyme fitness (log ratio)” value is reported as no more than -4.2. In the case of C8G A40G C85G G112U C114U A137C, the “polymerase ribozyme fitness (log ratio)” value is reported as no more than -4.2. With U7G C85G C93A A138G the “polymerase ribozyme fitness (log ratio)” value was no more than -4.2. For U6A A24C G48U G50U G71A C87G, the “polymerase ribozyme fitness (log ratio)” value was no more than -4.2. For U7G A30U C63U C87G C105G U111C, the “polymerase ribozyme fitness (log ratio)” value was no more than -4.2. With U7G U56A C85U A91U C95U U104G U134C the “polymerase ribozyme fitness (log ratio)” value was no more than -4.2. For U6G A28U C85A G136U, the “polymerase ribozyme fitness (log ratio)” value was no more than -4.2. With C8A A107C C108G U135A A142U the “polymerase ribozyme fitness (log ratio)” value was no more than -4.2. In the case of U7A A28U U44A U82C C87G G94U G152U, the “polymerase ribozyme fitness (log ratio)” value is reported as no more than -4.2. In the case of U7C A12U A23C A39U G88U C103A C118G U144A, the “polymerase ribozyme fitness (log ratio)” value is reported as no more than -4.2. In the case of U7A A12U A24G A60G G86U U111G C118U G140C, the “polymerase ribozyme fitness (log ratio)” value is reported as no more than -4.2. For C8A C10G A29C A30G U90G U104G A119U G141C, the “polymerase ribozyme fitness (log ratio)” value was no more than -4.2. With U6A C27G G50C C54U U55A G62A A106U the “polymerase ribozyme fitness (log ratio)” value was no more than -4.2. For U6C G11C A39C U101A A121U, the “polymerase ribozyme fitness (log ratio)” value was no more than -4.2. With U7G U31C G86U C108A the “polymerase ribozyme fitness (log ratio)” value was no more than -4.2. In the case of U6C C8A C96U C105A A138U, the “polymerase ribozyme fitness (log ratio)” value is reported as no more than -4.2. For U6C A22G C27A G83C C85A U101C U104A, the “polymerase ribozyme fitness (log ratio)” value was no more than -4.2. In the case of U6G A24U C75U C85U A91C C93G U145A, the “polymerase ribozyme fitness (log ratio)” value is reported as no more than -4.2. In the case of C8G A22C G42C C54G A89U C95G, the “polymerase ribozyme fitness (log ratio)” value is reported as no more than -4.2.
